# Experimental data reported in PubChem BioAssay AID1347120 (National Center for Advancing Translational Sciences (NCATS), 2019).
# The campaign covered roughly 390,000 compounds. About 930 (0.24%) were called active. The shares of active, inactive and inconclusive entries below differ from those in the screen. The call rests on the fitted dose curve; in most records, active means well fitted activation curve with a large enough effect; inconclusive means small, poorly fitted or top-dose-only effect; inactive means no such curve, though single readings can be large or run the other way. A potency beside an inconclusive call is a rough fit, not a confirmed value.
# Assay: qHTS for Suppressors of FUS Proteinopathy: Primary screen using FUS-linked yeast assay; further: nearly all actives have a fitted effect of over 55% in size;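 on growth rescue (activation): plate controls were DMSO vehicle for no effect and reference control for full effect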
# Details: S. cerevisiae FUS-expressing, OD600, 24 h; Potency: growth rescue; growth rescue (activation): at 76.6 µM (top of the series)
# How it was run: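 Absorbance at 600 nm, taken 24hr after compound addition, measured rescue of FUS-yeast growth at 30C. Induction used 2% galactose with seeding at OD 0.005. Controls: CP55940 from 92uM final, DMSO only.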
# Potency means the concentration at half of the fitted maximal effect; tags describe the fitted curve by direction and shape.
SMILES,growth rescue (activation),Potency
COc1ccccc1/C=C/c1nc(C#N)c(NC2CCCCC2)o1,inactive: 6.98%,
CCCCNc1c(-c2ccc(OC)c(SC(C)CC)c2)nc2cc(C)ccn12 (centres undefined),,"inconclusive: 28.2 µM [activator, single point]"
COc1ccc(C(=O)NCCn2cc(SCc3ccc(C(F)(F)F)cc3)c3ccccc32)cc1OC,,"inconclusive: 35.5 µM [activator, single point]"
O=C(c1ccc(Oc2ccc(C(F)(F)F)cn2)cc1)N1CCN(c2ccccc2)CC1,,"inconclusive: 35.5 µM [activator, partial curve]"
O=C(Nc1cccc2c1CCCC2)c1cc(C2CCCCN2C(=O)c2cccs2)on1 (centres undefined),,"inconclusive: 35.5 µM [activator, single point]"
CC1=C(C(=O)N(C(C)C)C(C)C)CC(CC(=O)NC2CC2)C(=O)N1Cc1ccc(C(C)(C)C)cc1 (centres undefined),inactive: 17.8%,
CCC(=O)Nc1ccc2nc(C)n(CC(=O)Nc3ccccc3)c(=O)c2c1,,"inconclusive: 39.8 µM [activator, single point]"
O=c1[nH]c2ccc(Cl)cc2c(-c2ccccc2)c1SC(=S)N1CCOCC1,,"inconclusive: 50.1 µM [activator, single point]"
Cc1onc(-c2ccccc2Cl)c1C(=O)Nc1ccc(S(=O)(=O)NCC2CCCO2)cc1 (centres undefined),,"inconclusive: 35.5 µM [activator, single point]"
CC(=O)c1cc(CC=C(C)C)c(O)c(CC=C(C)C)c1O,inactive: -8.64%,
COc1ccc(S(=O)(=O)N2Cc3ccccc3CC2C(=O)Nc2cc(Cl)ccc2Cl)cc1 (centres undefined),,"inconclusive: 8.91 µM [activator, partial curve, poor fit]"
O=C1C2=C(c3ccccc31)[N+](=O)C1CCCCC1N2[O-] (centres undefined),,"inconclusive: 31.6 µM [activator, partial curve, poor fit]"
COc1ccc(Cl)cc1NC(=O)CSc1nccn1-c1ccc(Cl)cc1,inactive: 9.42%,
CCOC(=O)Oc1c(OC)cc(C(=O)O[C@@H]2C[C@@H]3CN4CCc5c([nH]c6cc(OC)ccc56)[C@H]4C[C@@H]3[C@H](C(=O)OC)[C@H]2OC)cc1OC,,"inconclusive: 17.8 µM [activator, partial curve, poor fit]"
Cc1sc2c(c1C)c(=O)n(CCc1ccccc1)c(=O)n2Cc1ccc(C(C)(C)C)cc1,inactive: -13.6%,
Cc1ccc(-c2n[nH]c(=S)nc2-c2ccc(C)cc2)cc1,,"inconclusive: 28.2 µM [activator, single point]"
CCCOc1ccc(C(=O)NNC(=S)NC(=O)c2ccco2)cc1,inactive: 31.2%,
CCOC(=O)Nc1ccc(S(=O)(=O)NCCCN2CCOCC2)cc1,inconclusive: 67% [activator],
O=C1CSC(c2cn(-c3ccccc3)nc2-c2ccccc2)N1Cc1ccco1 (centres undefined),,"inconclusive: 35.5 µM [activator, partial curve]"
Cn1c(=O)c2sccc2n2c(CCCC(=O)Nc3ccc(Oc4ccccc4)cc3)nnc12,,"inconclusive: 39.8 µM [activator, single point]"

SMILES,growth rescue (activation),Potency
Cc1ccc(CNC(=O)c2ccc(N3CCC4(CC3)CC(c3cccc(Br)c3)=NO4)c(NC(=O)c3ccccc3)c2)cc1,,"inconclusive: 31.6 µM [activator, single point]"
COc1ccc(S(=O)(=O)N2CCN(C(=O)CN3C(=O)NC(C)(c4ccc5ccccc5c4)C3=O)CC2)cc1 (centres undefined),,"inconclusive: 7.94 µM [activator, full curve]"
Cc1ccc(C)c(N2CCN(C(=O)c3cc(C)nc4c3c(C)nn4-c3ccccc3)CC2)c1,,"inconclusive: 35.5 µM [activator, single point]"
CC(=O)Nc1cc(-c2ccccc2)cn2c(-c3ccc(F)c(Cl)c3)cnc12,,"inconclusive: 39.8 µM [activator, single point]"
COc1cc(-c2cccc([C@H]3[C@@H]4C=CC[C@@H](C)[C@@H]4C(=O)N3Cc3ccccc3)c2)cc(OC)c1OC,,"inconclusive: 20 µM [activator, partial curve, poor fit]"
Cc1cc(N2C(=O)C(O)=C(C(=O)c3ccco3)C2c2cccc(Cl)c2)no1 (centres undefined),,"inconclusive: 14.1 µM [activator, partial curve]"
CCOc1cccc(CN2CCCC(N3CCc4ccccc4C3)C2)c1O (centres undefined),inactive: 8.81%,
CCOc1ccc(C(=O)O/N=C(\N)c2ccccn2)cc1OCC,inactive: 8.04%,
Oc1ccccc1-c1cc(-c2ccco2)[nH]n1,inactive: 33.6%,
Cc1ccc(S(=O)(=O)N2C[C@H]3[C@H]4C(=O)N(C5CCCCC5)C(=O)[C@H]4CC(=O)[C@H]3[C@@H]2c2ccccc2F)cc1,,"inconclusive: 14.1 µM [activator, partial curve]"
CC(C)[C@@H](C(=O)NC1CCN(Cc2ccccc2)CC1)N1C(=O)N2CCc3c([nH]c4ccccc34)[C@@]2(C)C1=O,,"inconclusive: 31.6 µM [activator, single point]"
COC(=O)c1cc(-c2cc(F)cc(OC)c2)c(=O)n2c1CCC2,inactive: 6.58%,
C[C@H]1CCCN1c1cccc2c1S(=O)(=O)N1CC[C@@H](C1)O2,inactive: -16.1%,
CN(C)N=Nc1ccc(-c2cn(Cc3ccccc3)cn2)cc1,,"inconclusive: 20 µM [activator, partial curve]"
CC(C)N(C(=O)[C@H]1C[C@H](CC(=O)NCc2cccc(C(F)(F)F)c2)C(=O)N2CCc3c([nH]c4cc(CCC(=O)N(C)C)ccc34)[C@]12C)C(C)C,,"inconclusive: 44.7 µM [activator, partial curve, poor fit]"
COc1ccc(-c2cncnc2-c2ccc(OC)cc2O)cc1,inactive: 15%,
Cc1ccc(C)c(N2CCN(S(=O)(=O)c3c(C(=O)N4CCC(C)CC4)c(C)n(C)c3C)CC2)c1,,"inconclusive: 31.6 µM [activator, single point]"
CCOc1ccc(C2C(C(=O)c3ccc(C)o3)=C(O)C(=O)N2c2cc(C)on2)cc1OC (centres undefined),,"inconclusive: 25.1 µM [activator, partial curve, poor fit]"
CC(=O)N1CCc2c1cccc2S(=O)(=O)NC(CC(C)C)C(=O)Nc1ccc(Cl)c(Cl)c1 (centres undefined),,"inconclusive: 17.8 µM [activator, partial curve]"
